In the supplement of paper PMC3334620:
Over roughly 33,000 sequences, “E-score (-0.5 to 0.5)” has its median near -0.053; the highest 2% begin near 0.37. The list shows a part of the results.

The sequences below were run against Hap1 (UniProt P0CE41) (assay: PBM E-score (8-mer binding enrichment) (E-score (-0.5 to 0.5)); higher = stronger / more preferred TF binding; most listed sequences are background and not binding sites). Settings: protein concentration: 200 nM; construct: GST-DNA-binding domain.
Chain of UniProt P0CE41 (P0CE41 whole entry, the tested form may be a part): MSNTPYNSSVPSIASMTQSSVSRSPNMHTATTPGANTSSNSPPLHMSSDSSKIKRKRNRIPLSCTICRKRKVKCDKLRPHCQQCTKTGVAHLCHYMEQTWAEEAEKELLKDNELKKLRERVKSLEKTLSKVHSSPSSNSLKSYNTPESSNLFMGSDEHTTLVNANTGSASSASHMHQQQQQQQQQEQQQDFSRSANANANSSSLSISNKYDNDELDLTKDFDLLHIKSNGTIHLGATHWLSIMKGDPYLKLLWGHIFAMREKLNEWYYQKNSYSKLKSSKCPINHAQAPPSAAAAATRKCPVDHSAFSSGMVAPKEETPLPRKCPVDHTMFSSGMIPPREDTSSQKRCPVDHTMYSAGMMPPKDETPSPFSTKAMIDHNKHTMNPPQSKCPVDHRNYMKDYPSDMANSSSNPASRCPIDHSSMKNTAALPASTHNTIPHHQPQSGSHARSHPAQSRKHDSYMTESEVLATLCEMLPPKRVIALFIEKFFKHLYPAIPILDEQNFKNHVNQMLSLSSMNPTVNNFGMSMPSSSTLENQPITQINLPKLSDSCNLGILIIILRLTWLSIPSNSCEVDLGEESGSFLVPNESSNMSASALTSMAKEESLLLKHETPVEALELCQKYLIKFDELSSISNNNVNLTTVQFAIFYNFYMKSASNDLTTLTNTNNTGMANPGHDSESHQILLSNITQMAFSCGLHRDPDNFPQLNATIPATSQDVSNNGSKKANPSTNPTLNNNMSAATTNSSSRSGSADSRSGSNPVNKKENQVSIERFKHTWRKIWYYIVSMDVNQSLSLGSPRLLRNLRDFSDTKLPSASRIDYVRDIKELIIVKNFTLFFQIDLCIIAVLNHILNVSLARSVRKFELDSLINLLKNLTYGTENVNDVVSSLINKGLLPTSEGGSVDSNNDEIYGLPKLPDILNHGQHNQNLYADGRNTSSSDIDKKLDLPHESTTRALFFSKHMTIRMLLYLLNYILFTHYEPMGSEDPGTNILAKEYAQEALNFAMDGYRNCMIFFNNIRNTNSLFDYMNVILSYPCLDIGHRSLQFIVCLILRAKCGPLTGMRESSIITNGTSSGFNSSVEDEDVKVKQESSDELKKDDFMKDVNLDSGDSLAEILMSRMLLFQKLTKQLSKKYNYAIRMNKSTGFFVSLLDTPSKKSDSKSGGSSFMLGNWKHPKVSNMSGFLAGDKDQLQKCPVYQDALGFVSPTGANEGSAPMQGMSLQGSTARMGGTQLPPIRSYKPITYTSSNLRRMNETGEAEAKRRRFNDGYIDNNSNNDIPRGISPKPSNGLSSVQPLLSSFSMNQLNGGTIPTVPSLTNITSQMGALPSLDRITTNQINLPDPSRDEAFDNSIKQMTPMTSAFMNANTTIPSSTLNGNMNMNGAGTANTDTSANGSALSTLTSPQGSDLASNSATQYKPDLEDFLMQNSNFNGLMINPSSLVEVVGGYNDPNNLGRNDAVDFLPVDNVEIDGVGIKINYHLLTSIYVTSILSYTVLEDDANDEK
Experimental: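 Universal 'all 10-mer' protein binding microarrays (Agilent AMADID 015681) probed with GST-tagged S. cerevisiae TFs (full-length or DBD) made by in vitro transcription/translation (PURExpress), about 100-200 nM. Bound TF was detected with fluorescent anti-GST. Each ungapped 8-mer (which stands for itself and its reverse complement) is scored by the PBM enrichment score (E-score), a modified Wilcoxon-Mann-Whitney statistic from -0.5 to +0.5, computed with the Universal PBM Analysis Suite. Scale: above 0.35 generally sequence-specific binding.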
CTAGACAG was tested, and the “PBM E-score” value was -0.147. In the case of CGTTCTAG, the “PBM E-score” value is reported as -0.186. ACTAGTAC was tested, and the “PBM E-score” value was -0.173. For GAACGTAA, the “PBM E-score” value was -0.0339. With CCCTAACA the “PBM E-score” value was -0.0704. With AAGCTGTC the “PBM E-score” value was -0.242. With GAGTCTGC the “PBM E-score” value was -0.297. For CAGCCTTC, the “PBM E-score” value was -0.236. For GTACTGGA, the “PBM E-score” value was -0.166. In the case of ACGTTGGA, the “PBM E-score” value is reported as -0.228. For AGTCCCGC, the “PBM E-score” value was 0.0875. AACGAGAT was tested, and the “PBM E-score” value was -0.0517. For AGGCCCTC, the “PBM E-score” value was -0.0634. For CCAAGTAC, the “PBM E-score” value was -0.217. AGAACGTC was tested, and the “PBM E-score” value was -0.24. In the case of GATTCTCA, the “PBM E-score” value is reported as -0.0639. In the case of ACCTGCGC, the “PBM E-score” value is reported as 0.142. For AGGGACGC, the “PBM E-score” value was -0.301. In the case of AGGCATCG, the “PBM E-score” value is reported as -0.053. For AAAACGCC, the “PBM E-score” value was 0.173. With GAGGGCCA the “PBM E-score” value was -0.114. AGACTGGC was tested, and the “PBM E-score” value was -0.302. In the case of CTGTTGCA, the “PBM E-score” value is reported as -0.0203. For GCTATCTA, the “PBM E-score” value was -0.0267. In the case of ACCTCTTC, the “PBM E-score” value is reported as 0.024. GGCTTACC was tested, and the “PBM E-score” value was 0.0444. With CTTCACTC the “PBM E-score” value was 0.0238. In the case of AAAACACT, the “PBM E-score” value is reported as -0.0999. For CGTTAAGC, the “PBM E-score” value was 0.163. CGGTATAA was tested, and the “PBM E-score” value was 0.35. For AACAGATT, the “PBM E-score” value was -0.0582. For CGGGTTTC, the “PBM E-score” value was 0.331. For AAGCCGTG, the “PBM E-score” value was 0.0593. With AGGCCTAC the “PBM E-score” value was -0.182. With ATATCCTG the “PBM E-score” value was -0.0282. CGGTTAAC was tested, and the “PBM E-score” value was 0.203. For CATCGTTA, the “PBM E-score” value was -0.23. With GACCTCAC the “PBM E-score” value was -0.138. For TCCCAGCA, the “PBM E-score” value was 0.00066. With CATTGTGG the “PBM E-score” value was -0.101. With ATTCATTA the “PBM E-score” value was -0.0445. For CGGAAACC, the “PBM E-score” value was 0.314. With ACAAATGC the “PBM E-score” value was -0.0549. With AGAAAACA the “PBM E-score” value was -0.132. For AAAGGACA, the “PBM E-score” value was -0.00426. In the case of TAGCCGCA, the “PBM E-score” value is reported as 0.0768. With GTCATGGA the “PBM E-score” value was -0.0988. In the case of GTAAAGAC, the “PBM E-score” value is reported as 0.0128. For CACTGAGC, the “PBM E-score” value was -0.201. For GTGAGAAC, the “PBM E-score” value was -0.245. For AGCAACCC, the “PBM E-score” value was -0.111. ATTAATTC was tested, and the “PBM E-score” value was 0.282. For AGGGATCA, the “PBM E-score” value was -0.135. For CCCTCAAA, the “PBM E-score” value was -0.116. For AACGGGGT, the “PBM E-score” value was 0.188. In the case of GAAGCGAA, the “PBM E-score” value is reported as -0.0351. ATGATTAA was tested, and the “PBM E-score” value was -0.0671. With TCACACGA the “PBM E-score” value was -0.16. ACAGACTG was tested, and the “PBM E-score” value was -0.256. ACATTCGT was tested, and the “PBM E-score” value was -0.249. With AGTATCGG the “PBM E-score” value was 0.354. With GCCCTGAC the “PBM E-score” value was -0.328. TACACTGA was tested, and the “PBM E-score” value was -0.183. CACCTATA was tested, and the “PBM E-score” value was -0.24. For GACGGTAA, the “PBM E-score” value was 0.213. In the case of AGACGTCG, the “PBM E-score” value is reported as -0.0747. In the case of CTCCAATA, the “PBM E-score” value is reported as 0.0121. For CAATTAGG, the “PBM E-score” value was 0.0295. For ACAAAGGA, the “PBM E-score” value was 0.0364. With ATCGGCCG the “PBM E-score” value was 0.443. In the case of ACTCTTAG, the “PBM E-score” value is reported as -0.289. In the case of GATCTCCA, the “PBM E-score” value is reported as -0.0648. ATCCGCCA was tested, and the “PBM E-score” value was 0.181. For GATATCGA, the “PBM E-score” value was 0.159. With GAACCAAC the “PBM E-score” value was -0.096. In the case of ACGTTCAT, the “PBM E-score” value is reported as -0.299. With AAGAATCT the “PBM E-score” value was -0.116. With GACACCCA the “PBM E-score” value was -0.113. For GGGCCAGA, the “PBM E-score” value was -0.00391. AGGTCGAT was tested, and the “PBM E-score” value was 0.0775. GGCTTCCC was tested, and the “PBM E-score” value was -0.113. GATACGAC was tested, and the “PBM E-score” value was 0.03. GAACAGGA was tested, and the “PBM E-score” value was -0.126. For AGTGATAC, the “PBM E-score” value was -0.0775. For ATGTCTAA, the “PBM E-score” value was -0.201. In the case of CCTCCACA, the “PBM E-score” value is reported as -0.199. With CAAGTTGC the “PBM E-score” value was 0.0556. With GTGCCTTA the “PBM E-score” value was -0.0972. For AGTACCTC, the “PBM E-score” value was -0.216. In the case of GTTTAACA, the “PBM E-score” value is reported as -0.124. With CAAACGCC the “PBM E-score” value was 0.178. With CAGACGAC the “PBM E-score” value was -0.19. With ACGTTAGA the “PBM E-score” value was -0.114. For AAGTCACA, the “PBM E-score” value was -0.168. For CGCCGTTA, the “PBM E-score” value was 0.291. With GGAATGAC the “PBM E-score” value was 0.00539. In the case of GGTTCCCA, the “PBM E-score” value is reported as -0.121. CCCAACAG was tested, and the “PBM E-score” value was -0.328. For ATAACCAC, the “PBM E-score” value was 0.0206. For GTCACGAC, the “PBM E-score” value was -0.118. In the case of AAATCAGT, the “PBM E-score” value is reported as 0.0706. For ATTGGAGC, the “PBM E-score” value was -0.137. In the case of AGCTGCAA, the “PBM E-score” value is reported as -0.179. For ACCGACTA, the “PBM E-score” value was 0.23. In the case of CGATTTGA, the “PBM E-score” value is reported as -0.143. For GACCCCGA, the “PBM E-score” value was 0.285. GGGTGGAC was tested, and the “PBM E-score” value was 0.132. In the case of GAACTCCC, the “PBM E-score” value is reported as -0.0134. With GGGCCTCA the “PBM E-score” value was 0.117. In the case of GGAGCTTA, the “PBM E-score” value is reported as 0.0466. With ACTTTATC the “PBM E-score” value was 0.0432. GGGATAAC was tested, and the “PBM E-score” value was 0.185. For AATAGGCT, the “PBM E-score” value was -0.125. In the case of AAGACCCG, the “PBM E-score” value is reported as 0.281. In the case of CAAATGCC, the “PBM E-score” value is reported as 0.0155. CCGAGCGA was tested, and the “PBM E-score” value was 0.36. For CAGCGCCC, the “PBM E-score” value was -0.14. With CTAATTGC the “PBM E-score” value was 0.145. CCTGTTGC was tested, and the “PBM E-score” value was -0.0461. For GTCGGCAA, the “PBM E-score” value was 0.143. GGGTCTCA was tested, and the “PBM E-score” value was 0.0324. In the case of AAGCCTCA, the “PBM E-score” value is reported as -0.136. For TCTCCTAA, the “PBM E-score” value was -0.235. GGTTCCAA was tested, and the “PBM E-score” value was 0.14. For ACAACTAG, the “PBM E-score” value was 0.0211. For AACAGCGC, the “PBM E-score” value was -0.0575. With AAACCGTC the “PBM E-score” value was 0.0507. In the case of TACTTCGA, the “PBM E-score” value is reported as 0.0527. For ACGTAAAC, the “PBM E-score” value was -0.112. In the case of GGGCTAGA, the “PBM E-score” value is reported as 0.103. For AATGCTAT, the “PBM E-score” value was -0.113. For ACTCCTCC, the “PBM E-score” value was 0.062. TCGAAAAA was tested, and the “PBM E-score” value was 0.0162. For AGGCATGA, the “PBM E-score” value was -0.262. For ACGTTTCC, the “PBM E-score” value was -0.0406. With CGTCCGCA the “PBM E-score” value was 0.228. In the case of GATGATTA, the “PBM E-score” value is reported as 0.0802. In the case of CGCTCCAA, the “PBM E-score” value is reported as 0.0517. GTTCTAAA was tested, and the “PBM E-score” value was 0.0365. For CGGAGTTA, the “PBM E-score” value was 0.494. With TCGAGGAA the “PBM E-score” value was -0.207. In the case of CCCCGAGA, the “PBM E-score” value is reported as 0.319. With AACACTTG the “PBM E-score” value was -0.141. In the case of GCCTACAA, the “PBM E-score” value is reported as -0.0461. For ACTGCACG, the “PBM E-score” value was -0.0422. CGCTCGTC was tested, and the “PBM E-score” value was -0.118. ATCTTCCC was tested, and the “PBM E-score” value was 0.11. For CCAAGATC, the “PBM E-score” value was -0.0337. For GTCAATCA, the “PBM E-score” value was -0.0909. For AAATGTCT, the “PBM E-score” value was -0.0935. With AATGAGCC the “PBM E-score” value was -0.0744. For GCCCGACA, the “PBM E-score” value was 0.255. CGCGTCCG was tested, and the “PBM E-score” value was 0.242. In the case of ACGATGAC, the “PBM E-score” value is reported as -0.0904. For AACCGATG, the “PBM E-score” value was 0.193. With AGAAGCTC the “PBM E-score” value was -0.0716. CATAAGAG was tested, and the “PBM E-score” value was -0.0417. With AACGGTGG the “PBM E-score” value was -0.033. In the case of AGAGAGGG, the “PBM E-score” value is reported as -0.205. With CATGCAGC the “PBM E-score” value was -0.164. For GGAGTGCC, the “PBM E-score” value was 0.102. For AAAGCTGC, the “PBM E-score” value was -0.0753. In the case of ACCGGGCA, the “PBM E-score” value is reported as 0.288. For ATGCCTCG, the “PBM E-score” value was 0.0155. In the case of TAGGTGGA, the “PBM E-score” value is reported as -0.326. For CCATATAG, the “PBM E-score” value was -0.144. For GGATCATA, the “PBM E-score” value was 0.0799. With AAATATAC the “PBM E-score” value was 0.0145. In the case of CGACCAAA, the “PBM E-score” value is reported as 0.0382. CGTATGGA was tested, and the “PBM E-score” value was 0.1. In the case of AACTAGTT, the “PBM E-score” value is reported as -0.15. GTTCTCCA was tested, and the “PBM E-score” value was -0.0693.
